In all, about 33,000 sequences were measured (“E-score (-0.5 to 0.5)”: median about -0.012, highest 2% from about 0.29 on). The list shows a part of the results.
biological target: T1, Ybr033w (UniProt P38073); assay: PBM E-score (8-mer binding enrichment) (E-score (-0.5 to 0.5)); higher = stronger / more preferred TF binding; most listed sequences are background and not binding sites; settings: protein concentration: 200 nM; construct: GST-full length
T1 sequence: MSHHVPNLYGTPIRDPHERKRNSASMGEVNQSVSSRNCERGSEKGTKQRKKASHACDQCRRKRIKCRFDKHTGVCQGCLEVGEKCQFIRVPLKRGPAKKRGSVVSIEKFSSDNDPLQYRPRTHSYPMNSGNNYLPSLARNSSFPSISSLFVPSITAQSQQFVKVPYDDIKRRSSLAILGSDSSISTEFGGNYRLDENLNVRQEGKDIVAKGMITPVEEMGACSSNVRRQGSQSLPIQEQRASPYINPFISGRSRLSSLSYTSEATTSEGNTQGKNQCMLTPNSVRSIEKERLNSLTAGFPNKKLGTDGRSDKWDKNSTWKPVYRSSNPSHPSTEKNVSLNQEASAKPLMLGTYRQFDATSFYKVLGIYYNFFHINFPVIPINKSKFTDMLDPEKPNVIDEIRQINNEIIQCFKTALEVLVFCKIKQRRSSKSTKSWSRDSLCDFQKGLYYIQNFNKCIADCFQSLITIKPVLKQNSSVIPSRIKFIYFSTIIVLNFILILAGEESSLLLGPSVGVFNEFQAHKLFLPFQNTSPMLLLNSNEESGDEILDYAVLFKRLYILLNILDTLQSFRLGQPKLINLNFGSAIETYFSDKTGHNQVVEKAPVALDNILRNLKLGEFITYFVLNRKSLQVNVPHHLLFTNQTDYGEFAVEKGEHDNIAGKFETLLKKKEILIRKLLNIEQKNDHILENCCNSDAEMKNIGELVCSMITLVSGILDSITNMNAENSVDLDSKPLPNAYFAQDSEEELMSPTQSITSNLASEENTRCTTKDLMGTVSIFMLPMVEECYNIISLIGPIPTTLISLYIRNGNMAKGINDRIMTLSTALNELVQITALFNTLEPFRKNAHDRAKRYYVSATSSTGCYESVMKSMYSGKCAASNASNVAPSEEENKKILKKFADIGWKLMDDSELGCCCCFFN
Description: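 Universal 'all 10-mer' protein binding microarrays (Agilent AMADID 015681) probed with GST-tagged S. cerevisiae TFs (full-length or DBD) made by in vitro transcription/translation (PURExpress), about 100-200 nM. Bound TF was detected with fluorescent anti-GST. Each ungapped 8-mer (which stands for itself and its reverse complement) is scored by the PBM enrichment score (E-score), a modified Wilcoxon-Mann-Whitney statistic from -0.5 to +0.5, computed with the Universal PBM Analysis Suite. Scale: above 0.35 generally sequence-specific binding.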

Row | Sequence | PBM E-score
1 | CCTCGGTC | -0.27
2 | CTAAAACA | 0.148
3 | AGACTCAA | -0.0595
4 | ATGTCGAA | 0.146
5 | ACCCACCA | -0.0619
6 | CATCCGGA | 0.124
7 | TACACTCA | 0.133
8 | GGGGCGGA | -0.149
9 | ACGTTTAC | -0.0641
10 | ATTCCCGA | 0.125
11 | AATTAAAA | 0.112
12 | CATACACA | -0.00125
13 | TGTTTTAA | 0.212
14 | CGAATGGA | -0.0495
15 | CACATGGC | -0.012
16 | GATTAAAA | 0.311
17 | AGAAGACC | 0.0144
18 | CGTAACTC | -0.114
19 | AGGTTCAT | -0.0199
20 | CCGCGTGC | -0.231
21 | CATACCAC | -0.0161
22 | AGTCGCGA | 0.123
23 | TAGTGTGA | 0.117
24 | AGCTATCC | -0.212
25 | CTACACGC | -0.172

Row | Sequence | PBM E-score
26 | CTGTACTA | 0.131
27 | ACAAATGG | 0.221
28 | AAGTTACA | 0.258
29 | GTACACTA | 0.0249
30 | TCCATAGA | -0.0343
31 | CCTGCCGA | -0.0359
32 | CTATGGCC | -0.0512
33 | CCCGAGGC | -0.329
34 | ACGGGTTA | -0.268
35 | CCAACTCG | -0.0101
36 | ATGCCAAG | 0.0709
37 | AGCACGGA | -0.121
38 | CCCTGGAA | -0.157
39 | CGTTGTCC | 0.0254
40 | ACGTATCC | -0.257
41 | TGGATAAA | 0.391
42 | ACACACCC | 0.0734
43 | CCCGGGAC | -0.322
44 | CTTGTGTC | 0.0496
45 | TCACAAAA | 0.233
46 | CGGACCGA | -0.176
47 | CCTTAAAC | -0.05
48 | ACCTCACA | -0.042
49 | CACCGCGG | 0.00512
50 | ACCTCGAG | 0.161

Row | Sequence | PBM E-score
51 | CATTATTA | 0.243
52 | GCAAGGTA | 0.031
53 | GGATACAA | 0.12
54 | CCTATGAA | -0.0222
55 | CAGCCCCA | -0.133
56 | GAGTCTCA | -0.198
57 | AGACATTA | 0.101
58 | TGGGGACA | -0.193
59 | ATTGTGAA | 0.19
60 | CAAAGGCG | -0.233
61 | ACTTACTA | 0.118
62 | ATACCCCA | -0.0944
63 | CTTTCTAA | 0.136
64 | CAAGATCA | 0.0824
65 | ACCCCACC | -0.00413
66 | AAATCCCT | -0.0641
67 | ATAATCTG | 0.117
68 | AGGATCAA | 0.317
69 | CGACTCAG | -0.114
70 | CGAACGAG | -0.186
71 | GTCGTTGA | -0.108
72 | CCATTAGG | -0.119
73 | GGCGGCCC | -0.404
74 | AACATTCA | 0.126
75 | CGAGAGAG | -0.0679

Row | Sequence | PBM E-score
76 | AATACGAC | 0.116
77 | AATCTGGA | 0.171
78 | AGCGGCTC | -0.118
79 | AATACATC | 0.297
80 | CCGGATAC | -0.0612
81 | GGCCATAA | 0.0149
82 | AGGTAATC | 0.134
83 | ATTCCGGG | 0.188
84 | CGCGTATC | 0.0709
85 | AGTTCTGA | -0.0462
86 | CAACTTCA | 0.0086
87 | TGGGAACA | 0.111
88 | ATAAGACA | 0.118
89 | AAAGGGCA | -0.22
90 | CTGCTTAC | 0.00918
91 | ACAACAGC | 0.137
92 | AGCCCACG | -0.202
93 | AAAGTCCT | 0.0634
94 | ACGCAAAG | -0.0573
95 | ACGACTTG | -0.0732
96 | GTGTCTAA | 0.105
97 | GTCCTATA | -0.0933
98 | AAGGGAGT | -0.232
99 | CATGAAGA | 0.119
100 | AAATGCAA | 0.203

Row | Sequence | PBM E-score
101 | CGACGATA | -0.0965
102 | AACGTGGA | -0.0836
103 | AGACGAAG | -0.102
104 | AAGTTTTC | 0.285
105 | CGACAAAG | 0.0691
106 | ATTCCTGC | 0.105
107 | CGCGAACC | -0.0133
108 | CTGTTCTC | 0.0395
109 | CAAATCTA | 0.187
110 | CCCTCGGC | -0.237
111 | GAGTCTCC | -0.198
112 | GCAAACAC | -0.0584
113 | CAGAACGC | -0.161
114 | GAACCCGA | -0.158
115 | GCACTACC | -0.113
116 | AAAAGAAA | 0.179
117 | ACAGTCGA | -0.155
118 | AAGCAGCG | -0.0559
119 | GCAATCCC | -0.0124
120 | AGGTAACA | 0.148
121 | GAATGAAC | 0.176
122 | CTCACTCC | -0.13
123 | CTGAGTTC | 0.037
124 | GGGGTGAC | -0.0265
125 | GCACGCGA | -0.226

Row | Sequence | PBM E-score
126 | CTAAGTCC | -0.148
127 | CCGCAAAC | 0.00333
128 | TACCCAAA | 0.178
129 | CTTGAAAG | -0.0453
130 | CTATAGGC | -0.163
131 | GCGCGAGC | -0.21
132 | CCACCGAG | -0.108
133 | GGGCAACC | -0.116
134 | ACTTGTAT | 0.17
135 | ACACTATG | 0.116
136 | AGCTCAAG | -0.0708
137 | ATCAATCC | 0.104
138 | CCGTCGAA | -0.0394
139 | AAATATTA | 0.211
140 | ACGAGGTA | -0.0559
141 | GTGGACAC | -0.0803
142 | CCCCATAG | 0.0121
143 | CAACAATG | 0.0661
144 | CGTTCCCA | -0.0679
145 | CATATTTC | 0.213
146 | CCGATTGC | 0.0858
147 | AGCATCAG | -0.014
148 | ATAGTCCA | 0.045
149 | GGCGAGTA | -0.00611
150 | ATATCTCA | 0.24

Row | Sequence | PBM E-score
151 | GAGGCTGA | -0.0957
152 | ACCCACGA | -0.279
153 | GTGACTAA | 0.138
154 | GAGTCCGA | 0.0248
155 | GCCTAAGA | -0.127
156 | TACGAGTA | 0.297
157 | TCTCCTCA | -0.132
158 | CCGAGGTC | -0.232
159 | AAGTAAGC | 0.0648
160 | ATCCTTAA | 0.0415
161 | GGAGTCTA | -0.133
162 | GTGGGGGA | -0.292
163 | GATATAAC | 0.199
164 | CTTCCCAA | -0.0335
165 | CGATTGGC | -0.0233
166 | ATCACCCG | -0.093
167 | CTCCAGCC | -0.211
168 | CTCGTCCC | -0.0441
169 | ACCTTTCG | -0.132
170 | ATTATTTG | 0.335
171 | GTTCTGGA | 0.128
172 | ACAAGTAT | 0.249
